Assay results as given in PubChem BioAssay AID624417 (National Center for Advancing Translational Sciences (NCATS), 2012).
Values joined by “and” are separate entries in the source; they are usually repeats but may differ in a detail not shown here. Identical values can stand only once. About 6,400 (1.6%) of roughly 410,000 compounds were called active. This list was built around the results that the source calls inconclusive (neither active nor inactive); the mix of calls is not that of the screen. Calls follow the shape of the dose curve; as a rule, active = well fitted inhibition curve with a large enough effect; inconclusive = small, poorly fitted or top-dose-only effect; inactive = no such curve, though single readings can be large or run the other way. Potencies of inconclusive entries are doubtful fits and often do not repeat.

Target: Glucagon-like peptide 1 receptor (Homo sapiens) (UniProt P43220)
Assay: qHTS of GLP-1 Receptor Inverse Agonists (Inhibition Mode); also: nearly all actives have a fitted effect of over 55% in size
Conditions: HEK293 GLP-1R CRE-luciferase, luminescence, 24 h, GLP-1R form is constitutively active; activity change, negative = inhibition: at 38.3 µM (top of the series) unless noted
In short: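 Stable HEK293 clone (constitutively active GLP-1R + cAMP-response luciferase); 200 cells/uL plated, 12 h pre-culture, compound 24 hr, 37 deg C/5% CO2; detection reagent 12 min RT; luminescence.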
% is scaled to controls: 0 for no effect and ±100 for the full control effect; potency is read from the fitted curve at half-maximal effect; tags tell the direction and shape of the fitted curve.

Chain of UniProt P43220 (P43220 whole entry, looked up): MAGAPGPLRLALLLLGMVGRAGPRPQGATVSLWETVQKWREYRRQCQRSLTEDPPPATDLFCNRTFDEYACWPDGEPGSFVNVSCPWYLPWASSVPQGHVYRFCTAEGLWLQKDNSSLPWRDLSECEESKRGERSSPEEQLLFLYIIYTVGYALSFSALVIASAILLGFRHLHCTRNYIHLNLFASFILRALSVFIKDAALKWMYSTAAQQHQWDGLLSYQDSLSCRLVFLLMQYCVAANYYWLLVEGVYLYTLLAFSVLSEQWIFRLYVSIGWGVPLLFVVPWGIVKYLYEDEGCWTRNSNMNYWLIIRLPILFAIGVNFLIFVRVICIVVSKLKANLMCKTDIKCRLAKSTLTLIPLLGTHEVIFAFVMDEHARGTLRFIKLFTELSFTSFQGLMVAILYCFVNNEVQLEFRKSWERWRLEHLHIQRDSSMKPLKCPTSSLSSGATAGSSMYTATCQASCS

Q: For `CC(C)Cn1cnc2c1c(=O)n(CC(=O)Nc1ccc3c(c1)OCO3)c(=O)n2Cc1ccccc1`, which Potency is on record?
A: inconclusive: 1.12 µM [inhibitor, full curve, poor fit]

Q: Which Potency does the source give for `CCC(=O)N1CCc2cc(Br)cc(S(=O)(=O)N3CCCCCC3)c21` here?
A: inconclusive: 31.6 µM [inhibitor, single point]

Q: How did the Potency turn out when `COc1cc(C=O)ccc1OCCOCCOc1cc(C)ccc1Cl` was run?
A: inconclusive: 10 µM [inhibitor, partial curve, poor fit]

Q: How did the Potency turn out when `CCOc1ccc(N(CC(=O)Nc2cccc(Cl)c2)S(=O)(=O)c2c(C)noc2C)cc1` was run?
A: inconclusive: 7.08 µM [inhibitor, partial curve, poor fit]

Q: How did the Potency turn out when `COc1ccccc1-c1nc2cc(Cl)ccc2c(=O)n1O` was run?
A: inactive

Q: How did the Potency turn out when `Cc1ccc2oc(=O)c3cc(C(=O)NCCCN4CCCCCC4)sc3c2c1` was run?
A: inconclusive: 28.2 µM [inhibitor, single point]

Q: For `Cc1noc(C)c1CCC(=O)NC1CCCN(Cc2ccc(CC(C)C)cc2)C1` (stereo not given), which Potency is on record?
A: active: 10 µM

Q: How did the Potency turn out when `CC(OC(=O)CC1CC2CCC1C2)C(=O)Nc1cccc(S(=O)(=O)N2CCOCC2)c1` (stereo not given) was run?
A: inconclusive: 28.2 µM [inhibitor, single point]

Q: For `Cc1ccc2c(c1)N(C(=O)CCC(=O)N1CCc3ccccc3C1)CCO2`, which Potency is on record?
A: inconclusive: 14.1 µM [inhibitor, single point]

Q: `CC(=O)c1ccc(OCC(O)CN2CCN(c3ccccn3)CC2)cc1` (stereo not given) was tested. Which Potency did it give?
A: inactive

Q: For `Cc1ccccc1Cn1nnc(-c2ccc(F)cc2)n1`, which Potency is on record?
A: inconclusive: 22.4 µM [inhibitor, single point]

Q: Which Potency does the source give for `O=C(Nc1ccc(F)cc1)C1C2CCC3C(CCC21)C3(Cl)Cl` (stereo not given) here?
A: inconclusive: 11.2 µM [inhibitor, partial curve, poor fit]

Q: How did the Potency turn out when `CC(C)N(C(=O)[C@H]1CC(CC(=O)NCc2ccco2)C(=O)N2CCc3c([nH]c4ccccc34)[C@]12C)C(C)C` (stereo not given in full) was run?
A: inactive

Q: For `O=C(O)c1ccccc1SCc1cn2cc(Cl)ccc2n1`, which Potency is on record?
A: inconclusive: 15.8 µM [inhibitor, single point]

Q: With `COc1ccc(Cl)cc1NC(=O)Cn1ccn(-c2cc(C)cc(C)c2)c(=O)c1=O` as the molecule, how does the Potency read?
A: inconclusive: 14.1 µM [inhibitor, single point]

Q: Which Potency does the source give for `COc1cccc(N(C(=O)c2cnccn2)C(C(=O)NC2CCCCC2)c2ccc(Cl)cc2)c1` (stereo not given) here?
A: inconclusive: 7.08 µM [inhibitor, partial curve, poor fit]

Q: Which Potency does the source give for `Cc1cc(Cl)cc(C)c1OCCOCCNCc1ccccc1` here?
A: inconclusive: 28.2 µM [inhibitor, single point]

Q: With `Oc1ccccc1CNCC12CC3CC(CC(C3)C1)C2` as the molecule, how does the activity change, negative = inhibition read?
A: inconclusive: -77.2% [inhibitor]

Q: `Cc1ccc(CN2CC(C(=O)Nc3ccc(C)cn3)CC2=O)cc1` (stereo not given) was tested. Which Potency did it give?
A: inconclusive: 8.91 µM [inhibitor, partial curve, poor fit]

Q: `Cc1ccc(OCC(=O)Nc2ccccc2N2CCOCC2)c(C)c1` was tested. Which Potency did it give?
A: inconclusive: 10 µM [inhibitor, single point]

Q: How did the Potency turn out when `O=C1CC(NCCc2ccccc2)C(=O)N1CCc1ccccc1` (stereo not given) was run?
A: inconclusive: 11.2 µM [inhibitor, partial curve, poor fit]

Q: Which Potency does the source give for `CCc1ccccc1OCC(=O)NCC1COc2ccccc2O1` (stereo not given) here?
A: inconclusive: 14.1 µM [inhibitor, single point]

Q: For `COC(=O)C[C@@H]1C=C[C@@H](NC(=O)c2cccnc2)[C@@H](CO)O1`, which Potency is on record?
A: inactive

Q: For `Cc1ccc(C2N(C)C(=O)c3ccccc3N2C)cc1` (stereo not given), which Potency is on record?
A: inconclusive: 11.2 µM [inhibitor, single point]

Q: With `CC(=O)Nc1ccc(NC(=O)Nc2ccc(C)c(C)c2)cc1` as the molecule, how does the Potency read?
A: inactive

Q: For `COc1ccc(-c2noc(CN(C(=O)C(C)Oc3ccc(C)cc3)C(C)C)n2)cc1` (stereo not given), which Potency is on record?
A: inconclusive: 28.2 µM [inhibitor, single point]

Q: `COc1ccc2cc3c(N)nn(C(=O)c4ccccc4Cl)c3nc2c1` was tested. Which Potency did it give?
A: inconclusive: 2.51 µM [inhibitor, full curve] and inconclusive: 1 µM [inhibitor, full curve]

Q: For `COC(=O)c1ccc2nc(-c3ccc(OC)c(OC)c3)c(Cc3ccc(C)cc3)n2c1`, which Potency is on record?
A: inconclusive: 28.2 µM [inhibitor, single point]

Q: With `COc1cc(C(=O)Nc2ccc3ccccc3c2)cc(OC)c1OC` as the molecule, how does the Potency read?
A: inconclusive: 2 µM [inhibitor, partial curve, poor fit]

Q: How did the Potency turn out when `C/C(=N/Nc1ccc(C(=O)O)cc1)c1ccc2c(c1)Nc1ccccc1S2` was run?
A: inconclusive: 10 µM [inhibitor, partial curve, poor fit]

Q: For `O=C(CSc1nccc(-c2cccs2)n1)Nc1cccc(Cl)c1Cl`, which Potency is on record?
A: inconclusive: 10 µM [inhibitor, partial curve]

Q: For `CCOc1ccc(NC(=O)CSC(N)=O)cc1`, which Potency is on record?
A: inactive

Q: `COc1ccc(C2C(Oc3ccccc3C)C(=O)N2Cc2ccc(F)cc2)cc1OC` (stereo not given) was tested. Which Potency did it give?
A: inconclusive: 10 µM [inhibitor, single point]

Q: `COc1ccc(-c2sc3ccccc3c2-c2ccc(OCCN(C)C)cc2)cc1` was tested. Which Potency did it give?
A: inconclusive: 15.8 µM [inhibitor, partial curve, poor fit]

Q: For `O=C(NCc1ccccc1)c1ccc2c(c1)CCN2S(=O)(=O)c1ccc(Cl)cc1`, which Potency is on record?
A: inconclusive: 10 µM [inhibitor, single point]

Q: With `COc1ccc(NC(=O)CN(C)C(=O)CSc2nc3ccccc3s2)cc1` as the molecule, how does the Potency read?
A: inconclusive: 28.2 µM [inhibitor, single point]

Q: For `CCn1c(SCCC(C)C)nnc1-c1c[nH]c2ccccc12`, which Potency is on record?
A: inconclusive: 10 µM [inhibitor, partial curve, poor fit]

Q: How did the Potency turn out when `COc1ccccc1NC(=O)CC(c1ccc(F)cc1)c1ccco1` (stereo not given) was run?
A: inconclusive: 11.2 µM [inhibitor, single point]

Q: Which Potency does the source give for `COc1cccc(C2N(Cc3ccccc3)C(=O)C2(F)F)c1OC` (stereo not given) here?
A: inconclusive: 11.2 µM [inhibitor, single point]

Q: For `O=C(c1cnc(N2CCN(c3ncccn3)CC2)c2ccccc12)N1CCN(c2ccccn2)CC1`, which Potency is on record?
A: inconclusive: 28.2 µM [inhibitor, single point]
